Reference: article PMC4336329 (PLoS ONE, 2015)
Among all 310,000 compounds or so, about 14,000 (4.5%) showed an effect of 50% or more. The effect is printed as a negative number. The list shows a part of the results.

biological target: human ether-à-go-go-related gene (hERG) potassium channel (human, UniProt Q12809); assay: primary screen, population patch clamp on CHO cells stably expressing hERG
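Note: peak tail current of the secondary pulse compared with the same well before compound.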

Chain of human ether-à-go-go-related gene (hERG) potassium channel (Q12809 whole entry, looked up): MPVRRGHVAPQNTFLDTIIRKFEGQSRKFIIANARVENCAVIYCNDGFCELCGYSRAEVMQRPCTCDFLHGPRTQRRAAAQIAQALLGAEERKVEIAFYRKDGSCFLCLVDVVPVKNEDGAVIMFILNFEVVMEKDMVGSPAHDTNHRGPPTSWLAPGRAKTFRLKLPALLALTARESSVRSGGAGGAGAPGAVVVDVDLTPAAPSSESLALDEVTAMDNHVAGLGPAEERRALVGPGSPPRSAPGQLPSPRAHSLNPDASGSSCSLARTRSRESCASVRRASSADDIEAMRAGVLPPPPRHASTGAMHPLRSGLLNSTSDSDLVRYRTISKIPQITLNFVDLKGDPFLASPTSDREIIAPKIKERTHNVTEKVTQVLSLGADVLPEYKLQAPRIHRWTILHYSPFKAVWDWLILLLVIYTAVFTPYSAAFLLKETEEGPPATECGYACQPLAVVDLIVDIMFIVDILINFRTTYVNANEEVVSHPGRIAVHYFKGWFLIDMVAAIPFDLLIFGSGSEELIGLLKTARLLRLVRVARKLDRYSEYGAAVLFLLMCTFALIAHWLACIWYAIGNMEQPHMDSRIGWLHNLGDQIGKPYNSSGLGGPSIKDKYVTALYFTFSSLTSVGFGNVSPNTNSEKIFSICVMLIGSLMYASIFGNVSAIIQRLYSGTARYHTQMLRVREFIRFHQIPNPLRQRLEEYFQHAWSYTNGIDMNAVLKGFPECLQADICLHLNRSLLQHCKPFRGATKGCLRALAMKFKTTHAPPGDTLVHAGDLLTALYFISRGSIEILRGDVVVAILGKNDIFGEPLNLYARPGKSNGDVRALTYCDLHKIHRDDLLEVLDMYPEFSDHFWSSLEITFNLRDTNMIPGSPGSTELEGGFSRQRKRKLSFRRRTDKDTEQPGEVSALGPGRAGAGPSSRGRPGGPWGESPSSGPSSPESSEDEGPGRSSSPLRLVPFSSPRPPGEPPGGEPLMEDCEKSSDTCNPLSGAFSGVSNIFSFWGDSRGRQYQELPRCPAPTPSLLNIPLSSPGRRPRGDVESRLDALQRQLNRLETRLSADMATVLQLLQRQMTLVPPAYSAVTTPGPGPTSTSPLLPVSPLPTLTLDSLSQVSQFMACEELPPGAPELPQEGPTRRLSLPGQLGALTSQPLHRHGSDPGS

| SMILES | hERG current change (%, negative = inhibition) at 10uM |
| --- | --- |
| CCC(C)NC(=O)N[C@@H](Cc1ccccc1)C(=O)O (stereo partly shown) | -1.98% |
| COc1ccccc1/C=C/C1=NC(=C\C=C/c2ccccc2)/C(=O)O1 | 3.98% |
| CCCCCCc1cc2cc(C(=O)NC)c(=N)oc2cc1O | -7.38% |
| Cc1cc(C)c[n+](C(C)C(=O)c2ccc(Cl)cc2)c1.[Br-] (stereo not shown) | 4.97% |
| COc1ccc(NC(=O)C(CCCCNC(=O)OC(C)(C)C)NC(=O)OCc2ccccc2)cc1 (stereo not shown) | 21.6% |
| O=C(COC(=O)c1cc(S(=O)(=O)N2CCOCC2)ccc1Cl)Nc1ccc2c(c1)OCO2 | -11% |
| CCN1CCc2c(sc(NC(=O)c3ccc(C(=O)c4ccccc4)cc3)c2C(N)=O)C1.Cl | -55.4% |
| O=C(/C=C/c1ccco1)Nc1nnc(-c2ccco2)s1 | 37.5% |
| CCOC(=O)/C(C#N)=C/c1cn(CCC(=O)O)nc1-c1cccc(Cl)c1 | 25.3% |
| N#C/C(=C/Nc1ccccc1C(=O)O)C(N)=O | 3.85% |
| Clc1ccc(-c2nc3cnccn3c2Nc2ccc3c(c2)OCO3)cc1 | -18.4% |
| O=C(O)/C=C/C(=O)NCc1csc2ccccc12 | 10.3% |
| CCOc1cccc(C2NCc3ccccc3-n3cccc32)c1O.Cl (stereo not shown) | -22.4% |
| O=C1N(Cc2cccc(Cl)c2)C[C@@H]2C[C@@H](c3cccn3-c3ccccn3)N3CCC[C@@]123 | -73.5% |
| CC(C)CCNc1ncnc2c1cnn2Cc1ccccc1Cl | -27.9% |
| CC1(c2ccccc2)CC2CC(c3ccccc3)N1O2 (stereo not shown) | 9.74% |
| Cc1sc(-c2ccncc2)nc1OC(=O)c1ccc(Cl)cc1 | -15.7% |
| CSc1nc(NC(C)(C)C)nc(Oc2ccc(=O)[nH]n2)n1 | 4.68% |
| Cc1ccc(NC(=O)c2ccc3c(c2)C(=O)N(c2cc(C)ccc2C)C3=O)nc1 | 19% |
| Cc1ccc(NC2=CC(=O)CC(C)(C)C2)cc1Cl | 2.27% |
| CC(Cc1cnccn1)NCc1c(C(=O)N2CCCCCCC2)nc2ccc(Cl)cn12 (stereo not shown) | -12.8% |
| Cc1nnsc1Sc1ccccc1C(=O)O | 8.3% |

| SMILES | hERG current change (%, negative = inhibition) at 10uM |
| --- | --- |
| CCOc1ccc(CN2CCNC(=O)C2CC(=O)NC2CCOCC2)cc1 (stereo not shown) | -44.7% |
| Cc1sc(NC(=O)c2ccco2)c(C(c2cccnc2)N2CCN(c3ccc(F)cc3)CC2)c1C (stereo not shown) | 1.92% |
| CCC(=O)N/N=C(\C)CC(=O)Nc1ccc(F)cc1 | 0.39% |
| COc1cc2c(cc1OC)C(c1cccs1)N(C(=O)c1cccc(S(=O)(=O)N(C)C)c1)CC2 (stereo not shown) | -70.7% |
| O=C(NCCOCCOCCNC(=O)c1cccnc1)c1cccnc1 | 1.55% |
| CCCc1cc(=O)oc2cc(OCC(=O)N3CCc4ccccc43)ccc12 | 1.89% |
| O=C(O)C(=O)O.c1ccc(CCN(Cc2ccccc2)C2CCN(C3CCCC3)CC2)cc1 | -77% |
| CCOc1ccc(OCc2cccc(C(=O)N(CC)CC)c2)cc1 | -67.6% |
| COC(=O)/C(C#N)=C/c1c(N2CCCCCC2)nc2ccccn2c1=O | -10.8% |
| CC1=CC(=O)C=CC1(C)C(Cl)Cl (stereo not shown) | -3.69% |
| COc1cccc(NC(=O)N2CCOCC2)c1 | -14.8% |
| COc1ccc(-n2nc(C(=O)Nc3ccc4c(c3)OCO4)c3ccccc3c2=O)c(OC)c1 | 13% |
| Cc1ccc(NC(=O)c2cccc(-n3cnnn3)c2)cc1Cl | -11.8% |
| CC(=O)Oc1ccc(S(=O)(=O)c2ccc(OC(C)=O)cc2)cc1 | 16.4% |
| COc1ccc2[nH]cc(C(=O)CN(C)CCc3ccc(OC)c(OC)c3)c2c1 | -70.3% |
| Cc1cnc(C(=O)OCC(=O)Nc2ccc(C)c(S(=O)(=O)N3CCCCC3)c2)cn1 | -8.9% |
| O=C(NCc1ccco1)c1ccc(Cn2cc([N+](=O)[O-])cn2)o1 | -10.3% |
| O=C(CSc1nnc(-c2ccccc2)n1Cc1ccccc1)N1CCOCC1 | -2.09% |
| O=C1NCCC/C1=N/Nc1ccc(F)cc1 | 3.33% |
| CCCn1c(-c2cccs2)nc2c1c(=O)[nH]c(=O)n2Cc1ccccc1 | 12.1% |
| Cc1nc(-c2cccc(NS(=O)(=O)c3ccc4ccccc4c3)c2)cs1 | 9.1% |
| Cc1ccn(CCC(=O)Nc2ccc3c(c2)OCO3)n1 | 17.6% |

| SMILES | hERG current change (%, negative = inhibition) at 10uM |
| --- | --- |
| Cc1ccc(NC(=O)CNC(c2ccccc2)c2ccccc2)c(F)c1 | 6.43% |
| Cc1ccc(S(=O)(=O)N(CC(=O)NCCSCc2ccco2)c2cc(C)ccc2C)cc1 | -9.25% |
| COc1ccccc1Nc1ncccc1C(=O)O | 9.41% |
| COc1ccc(NC(=O)CSCC(=O)N2CCN(C(=O)c3ccco3)CC2)cc1 | -55.1% |
| COc1ccc(Nc2cc(C)nc(NCc3ccccc3)n2)cc1 | -38% |
| COc1ccc(-c2noc(CCC(=O)NCCCN3CCN(c4ccccc4F)CC3)n2)cc1 | -61% |
| CCN(C(=O)CN1CC=C(c2ccccc2)CC1)c1c(N)n(Cc2ccccc2)c(=O)[nH]c1=O | 14.1% |
| COc1ccc(OC)c(NC(=O)CCCc2ccccc2)c1 | 6.1% |
| O=C(CSc1nc2c(c(=O)n1-c1ccc(Cl)cc1)SCC2)NCc1ccco1 | -19.4% |
| CC1=NN(C(C#N)c2ccccc2C)C(C)(C)C1 (stereo not shown) | 6.62% |
| CN1CCN(C(=O)c2ccc3c(c2)OCCO3)CC1.Cl | -3.6% |
| Cc1noc(NS(=O)(=O)c2ccc(NC(=O)Nc3ccc(Cl)c(Cl)c3)cc2)c1C | 63.2% |
| COc1ccc(Cl)cc1NC(=O)CN1CCc2ccccc21 | -6.19% |
| Cc1n[nH]c(C)c1SCC(=O)Nc1ccc(F)cc1 | 14.8% |
| Cc1nc(-c2cc(C#N)c(=O)[nH]c2C)cs1 | 19.9% |
| Cc1nn(C)c(NC(=O)c2ccc([N+](=O)[O-])cc2)c1Cl | -1.85% |
| CCc1ccccc1Nc1nc(N)nc(COC(=O)CCC(=O)c2ccc(F)cc2)n1 | -34.4% |
| O=C(CCN1C(=O)C2C3C=CC(C3)C2C1=O)NCC1CCCO1 (stereo not shown) | -4.54% |
| O=c1c2cnn(-c3ccc(F)cc3)c2ncn1Cc1ccccc1 | 2.59% |
| Cc1nc2nc3c(c(=O)n2[nH]1)CCC3 | -2.24% |
| C#CCOCCOCCOCCNc1nc(N2CCOCC2)nc(N2CCN(C(=O)[C@H](Cc3cc4ccccc4[nH]3)n3cc([C@@H](N)CC(C)C)nn3)CC2)n1.Cl | 10.8% |
| Cc1ccc(C(=O)NCC(=O)OC(C)C(=O)NCCC2=CCCCC2)cc1C (stereo not shown) | 5.58% |

| SMILES | hERG current change (%, negative = inhibition) at 10uM |
| --- | --- |
| O=C(Nc1ccc(OCc2ccccc2)cc1)c1cccc([N+](=O)[O-])c1 | 12% |
| O=C(NCC(=O)N1CCCC(C(F)(F)F)C1)c1ccccc1Br (stereo not shown) | 6.21% |
| O=C1CN(C(=O)c2cccc(Br)c2)c2ccccc2N1 | -10.8% |
| N#C/C(=C/c1cn(CC(=O)O)c2ccccc12)C(=O)Nc1ccccc1 | 15.4% |
| CCOC(=O)c1cnc2cc(-c3ccc(C(C)(C)C)cc3)nn2c1N | 7.95% |
| CC(C)(C)NC(=O)Cn1cc(C(=O)c2ccccc2F)c2ccccc21 | 12.5% |
| CC(C)CCn1c(=O)c(C(=O)N/N=C/c2cccc(F)c2)c(O)c2ccccc21 | 17.8% |
| CC(C)CNc1nc(Oc2ccc(=O)[nH]n2)nc(N(C)C)n1 | 8.46% |
| Cc1ccc(NC(=O)C2CC(=O)N(C(C)C)C2)cc1Cl (stereo not shown) | 33.2% |
| COc1ccc(C)cc1NC(=O)COC(=O)c1ccc2ccccc2n1 | 3.24% |
| CCN1C(=O)[C@H]2[C@@H](c3ccc(-c4cccc(Cl)c4)c(OC)c3)N[C@@](C)(C(=O)OC)[C@H]2C1=O.O=C(O)C(F)(F)F | -9.94% |
| O=C(NN1CCOCC1)c1cc(-c2ccc(Br)s2)nc2ccccc12 | -3.42% |
| COc1cc(C(=O)OCC(=O)N2CCCC2)cc(OC)c1OC | 9.55% |
| Cc1ccc(N2C(=O)/C(=C/c3cccnc3)SC2=S)cc1 | 14.9% |
| COc1ccc(-c2nn(-c3ccccc3)cc2C(=O)n2nnc3ccccc32)cc1 | 21.9% |
| Cc1ccc(NCC(=O)N=Nc2c(O)[nH]c3ccc([N+](=O)[O-])cc23)cc1 | -5.06% |
| CCOc1cc(C2C(C(=O)c3ccc(C)cc3)=C(C(=O)OC)Nc3nnnn32)ccc1O (stereo not shown) | 11.9% |
| CCOC(=O)C1=C(O)CSC1=Nc1cccc(Cl)c1 | 2.11% |
| CC(=O)c1cccc(NC(=S)NC2CCCCC2)c1 | -9.05% |
| CC(NS(=O)(=O)c1ccc(Br)cc1)C(=O)Nc1nc2ccccc2[nH]1 (stereo not shown) | -6.06% |
| O=C(NCc1nnc(SCC(=O)N2CCCC2)o1)c1cccc(C(F)(F)F)c1 | 8.84% |
| CCOC(=O)c1c(NC(=O)C(C)NCc2ccco2)sc2c1CCC(C)C2.O=C(O)C(=O)O (stereo not shown) | -4.23% |
